The full ranking holds about 33,000 sequences; the median of “E-score (-0.5 to 0.5)” is about -0.032, and the highest 2% start at about 0.36. The list shows a part of the results.
These sequences were tested against T1, Sko1 (UniProt Q02100) (assay: PBM E-score (8-mer binding enrichment) (E-score (-0.5 to 0.5)); higher = stronger / more preferred TF binding; most listed sequences are background and not binding sites). Details: protein concentration: 200 nM; construct: GST-full length.
T1 sequence: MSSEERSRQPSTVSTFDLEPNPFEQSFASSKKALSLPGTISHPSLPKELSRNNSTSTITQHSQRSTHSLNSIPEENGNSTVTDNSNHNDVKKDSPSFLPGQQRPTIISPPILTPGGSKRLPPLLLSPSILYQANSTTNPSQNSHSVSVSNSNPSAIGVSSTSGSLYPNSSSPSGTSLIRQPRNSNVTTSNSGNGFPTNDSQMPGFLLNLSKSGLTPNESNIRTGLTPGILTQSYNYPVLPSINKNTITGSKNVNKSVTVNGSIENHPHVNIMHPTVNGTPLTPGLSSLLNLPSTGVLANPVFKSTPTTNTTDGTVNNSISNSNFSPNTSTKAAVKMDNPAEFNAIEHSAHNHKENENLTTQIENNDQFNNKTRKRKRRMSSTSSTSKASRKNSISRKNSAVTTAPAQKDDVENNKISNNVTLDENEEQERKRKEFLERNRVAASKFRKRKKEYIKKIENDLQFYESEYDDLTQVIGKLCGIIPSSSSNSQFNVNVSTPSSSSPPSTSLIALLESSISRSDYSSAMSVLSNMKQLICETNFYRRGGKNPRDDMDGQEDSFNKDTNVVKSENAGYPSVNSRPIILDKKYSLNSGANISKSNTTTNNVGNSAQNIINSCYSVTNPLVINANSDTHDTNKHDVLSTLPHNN
Procedure: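 Universal 'all 10-mer' protein binding microarrays (Agilent AMADID 015681) probed with GST-tagged S. cerevisiae TFs (full-length or DBD) made by in vitro transcription/translation (PURExpress), about 100-200 nM. Bound TF was detected with fluorescent anti-GST. Each ungapped 8-mer (which stands for itself and its reverse complement) is scored by the PBM enrichment score (E-score), a modified Wilcoxon-Mann-Whitney statistic from -0.5 to +0.5, computed with the Universal PBM Analysis Suite. Scale: above 0.35 generally sequence-specific binding.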

First: GCACTACA
Second: AATATCTG
The “PBM E-score” value of the first is higher: -0.0138 for the first, -0.053 for the second.

Going from CACTGGGA to TAGTTCCA, the “PBM E-score” value rises from -0.0437 to -0.0377.

Compared with AATGGTGC, AGGGGGGA is lower in “PBM E-score” value: -0.0923 for the first, -0.229 for the second.

Going from ATTCTTCA to CGGTACAC, the “PBM E-score” value falls from -0.0499 to -0.195.

Compared with GACTGATA, AGCTCCGC is higher in “PBM E-score” value: -0.144 for the first, -0.111 for the second.

Going from ACTAACGC to AACAAGAC, the “PBM E-score” value falls from 0.0897 to 0.0336.

First: ACTGAACC
Second: CTGATGTC
The “PBM E-score” value of the first is lower: -0.241 for the first, 0.173 for the second.

Compared with GGGCATCA, AACGGCGA is lower in “PBM E-score” value: 0.0423 for the first, 0.00837 for the second.

Compared with ATCTTAAC, CAAAAAGC is lower in “PBM E-score” value: 0.24 for the first, 0.0208 for the second.

First: CGCGCGGC
Second: ATTGTCCA
The “PBM E-score” value of the first is higher: 0.164 for the first, -0.0062 for the second.

Compared with AGGTTTAG, AACAATTC is higher in “PBM E-score” value: -0.0336 for the first, 0.0554 for the second.

Compared with CAGGTCTC, TATCCCGA is higher in “PBM E-score” value: -0.279 for the first, 0.0654 for the second.

Going from CCTGGCAC to AATTAGTG, the “PBM E-score” value rises from -0.224 to 0.159.

Going from CTATTAAA to TCGTTCAA, the “PBM E-score” value falls from 0.0923 to -0.0129.

First: GAATCCCA
Second: CAGGGCCG
The “PBM E-score” value of the first is higher: -0.105 for the first, -0.162 for the second.

First: AGTATAAC
Second: CGGAGTCA
The “PBM E-score” value of the first is higher: 0.0724 for the first, -0.0951 for the second.

Going from GGTTAACA to CCCGGCTA, the “PBM E-score” value falls from 0.0946 to -0.309.

Going from ATTGCTGC to CAACCCTC, the “PBM E-score” value falls from -0.0462 to -0.178.

Compared with ACCTTAGA, AGAAGCTG is lower in “PBM E-score” value: 0.0372 for the first, -0.0693 for the second.

First: AGGATGCC
Second: ACAGATTA
The “PBM E-score” value of the first is lower: -0.211 for the first, 0.032 for the second.

Going from AGTAGAAC to ATCATAAC, the “PBM E-score” value rises from -0.0441 to 0.301.

First: GGATCTTA
Second: CCAGTAGA
The “PBM E-score” value of the first is higher: -0.0116 for the first, -0.0456 for the second.

Going from CTAGAAGC to AGCATTCG, the “PBM E-score” value rises from -0.181 to -0.0192.

Compared with AATGTGCG, ACAAAGGC is lower in “PBM E-score” value: 0.222 for the first, -0.202 for the second.

Going from AGAACATC to GGCACTGA, the “PBM E-score” value falls from 0.0232 to -0.0952.

Going from AGCTTCTG to CTAACTTC, the “PBM E-score” value rises from -0.26 to 0.0478.

First: AACGTGCC
Second: GCTTCAAA
The “PBM E-score” value of the first is higher: 0.167 for the first, -0.227 for the second.

Compared with GGACCTCA, ATGAGGGC is lower in “PBM E-score” value: -0.0759 for the first, -0.142 for the second.

Compared with AGCTTAAA, CGGTAAGC is lower in “PBM E-score” value: -0.0733 for the first, -0.122 for the second.

First: AACCTATG
Second: GTCGCGAC
The “PBM E-score” value of the first is lower: 0.128 for the first, 0.205 for the second.

First: CCGCAAGC
Second: CTTAGCAA
The “PBM E-score” value of the first is lower: -0.232 for the first, -0.0104 for the second.

First: CACGTGCA
Second: ACTGATTC
The “PBM E-score” value of the first is higher: 0.329 for the first, 0.0353 for the second.

Compared with GAAATTCA, GACATAAC is higher in “PBM E-score” value: 0.0854 for the first, 0.202 for the second.

Going from CACAGAGC to AGATTTTG, the “PBM E-score” value rises from 0.0302 to 0.06.

Going from AGTGTAGG to ACTCAAGT, the “PBM E-score” value rises from -0.0121 to -0.00867.

Going from GGGCTACA to TGCGGACA, the “PBM E-score” value rises from -0.311 to -0.0412.

Compared with GCGCTTAC, AACAACAT is lower in “PBM E-score” value: 0.143 for the first, 0.0743 for the second.

Compared with CACCCGCA, CCTTAATC is higher in “PBM E-score” value: -0.151 for the first, -0.129 for the second.

Compared with CGCTGCTC, AAATTCGC is higher in “PBM E-score” value: -0.254 for the first, 0.177 for the second.

Going from CCGACAGG to ATCGCGTG, the “PBM E-score” value rises from 0.00928 to 0.242.

Compared with CAATACAG, CTACAATC is higher in “PBM E-score” value: -0.0302 for the first, 0.144 for the second.

Going from CTTTGGAA to CGGATATA, the “PBM E-score” value rises from -0.0181 to 0.15.

Compared with CAACGCCC, CGGCTTGA is higher in “PBM E-score” value: -0.239 for the first, -0.0312 for the second.

Compared with TAAACAAA, CCAGCACC is lower in “PBM E-score” value: 0.119 for the first, -0.324 for the second.

Going from CCTTACCA to AATGTTAT, the “PBM E-score” value rises from -0.026 to 0.0252.

Compared with ACCACCCC, ACTTAAAG is higher in “PBM E-score” value: -0.178 for the first, 0.0316 for the second.

First: CTGTTAAC
Second: CACCTCTA
The “PBM E-score” value of the first is higher: 0.0989 for the first, -0.0273 for the second.

Compared with CGATCAGC, AAGGTTAG is higher in “PBM E-score” value: -0.111 for the first, -0.0927 for the second.

Going from GGCCAGTA to AGATCCCG, the “PBM E-score” value rises from -0.113 to -0.0957.

Compared with CGTATTTA, CAGGGCCC is lower in “PBM E-score” value: 0.419 for the first, -0.286 for the second.

Going from ACTCTCAA to AGGCTACA, the “PBM E-score” value falls from -0.00162 to -0.209.

First: GGCCTCCC
Second: ACTCCCAT
The “PBM E-score” value of the first is lower: -0.336 for the first, -0.0603 for the second.

Compared with AGAATTCA, CTTCTGGA is lower in “PBM E-score” value: -0.00015 for the first, -0.187 for the second.

Going from ACTGCAGT to TGCTTCCA, the “PBM E-score” value rises from -0.105 to -0.067.

Going from AGGGCCAG to ACACATTG, the “PBM E-score” value rises from -0.407 to 0.0485.

Going from ACGAACAT to CGCTGTAA, the “PBM E-score” value falls from 0.189 to 0.0521.

Compared with ATTTTCGG, ATTGACTG is lower in “PBM E-score” value: 0.0716 for the first, -0.0166 for the second.

First: TTATACAA
Second: CCGGGACG
The “PBM E-score” value of the first is higher: 0.21 for the first, -0.265 for the second.

Going from CATCTCCA to GGGATTAA, the “PBM E-score” value rises from -0.0921 to -0.0784.

First: ATAAGGAA
Second: GTCATCTA
The “PBM E-score” value of the first is lower: -0.11 for the first, 0.353 for the second.

Going from GACATGCC to AGAAATCT, the “PBM E-score” value rises from -0.11 to 0.0372.

Compared with GTGTTGCA, AGCCCTAC is lower in “PBM E-score” value: 0.109 for the first, -0.00618 for the second.

First: CAATAGCG
Second: CTATTAAC
The “PBM E-score” value of the first is lower: 0.0227 for the first, 0.108 for the second.

Compared with TGGGAGAA, ACATCCGC is lower in “PBM E-score” value: -0.0868 for the first, -0.124 for the second.

First: ATCAGCCG
Second: ACTCCCAG
The “PBM E-score” value of the first is higher: -0.146 for the first, -0.212 for the second.

Going from ACAGGATG to CATCCGAC, the “PBM E-score” value falls from -0.0946 to -0.102.

First: ACAGGAGA
Second: CTCCGTGC
The “PBM E-score” value of the first is higher: -0.0703 for the first, -0.255 for the second.

First: ACAGGGAC
Second: AGATAGAA
The “PBM E-score” value of the first is lower: -0.0907 for the first, -0.0114 for the second.

Compared with ATCAACAG, TAAACCCA is higher in “PBM E-score” value: 0.08 for the first, 0.156 for the second.

Compared with CTTATCGA, GGTATATA is higher in “PBM E-score” value: 0.0311 for the first, 0.189 for the second.

Going from AGCTCCAT to ACACTATA, the “PBM E-score” value rises from 0.0478 to 0.127.

First: GTCTATAA
Second: CATGAGGC
The “PBM E-score” value of the first is higher: 0.142 for the first, -0.204 for the second.

Compared with AAGATAGG, ATTGGGGC is lower in “PBM E-score” value: -0.131 for the first, -0.148 for the second.

Compared with AAGGCCCG, AGCATATG is higher in “PBM E-score” value: -0.32 for the first, -0.0821 for the second.

Going from ACAAATCG to GCGATGCC, the “PBM E-score” value falls from 0.0878 to -0.215.

First: GTGAGCAA
Second: CCCCTCAC
The “PBM E-score” value of the first is higher: 0.0421 for the first, -0.132 for the second.

First: CCTAGGAC
Second: GAGTCAGC
The “PBM E-score” value of the first is lower: -0.29 for the first, 0.0517 for the second.

Going from AGACATGA to GGAACTTA, the “PBM E-score” value falls from 0.0292 to 0.0286.

Going from GCTTCTGA to ATTCACAC, the “PBM E-score” value rises from -0.0487 to 0.105.

Going from GCTACGCA to AAGAGCGT, the “PBM E-score” value falls from 0.294 to 0.0353.

Going from ACCAGGAC to ACAAGAAA, the “PBM E-score” value rises from -0.205 to 0.113.

First: AGAATGAG
Second: AGGCGAGA
The “PBM E-score” value of the first is higher: 0.0649 for the first, -0.208 for the second.

Compared with CGTAGGAC, CCTTTCTA is lower in “PBM E-score” value: 0.0514 for the first, 0.0431 for the second.

Going from GACACAAA to CTCGTGCA, the “PBM E-score” value falls from 0.141 to -0.0967.

Going from CGGAATCC to AATCCATA, the “PBM E-score” value rises from -0.2 to 0.0971.

Going from CGCGATAC to GCTTACTA, the “PBM E-score” value falls from 0.194 to 0.00391.

From the supplement of paper PMC3334620
